Potency data for 93 compounds are collected here from PubChem BioAssay AID360 (National Center for Advancing Translational Sciences (NCATS), 2006).

Structures are written as SMILES. Out of some 48,000 compounds screened, about 550 (1.1%) were called active. Inconclusive results (about 4%) are left out. No stated cut-off is given here; in the data, active means potency below about 15 µM; inconclusive means mostly about 16 µM to 33 µM; inactive means weaker than that. The list shows a part of the results.
Potency means the concentration at half of the fitted maximal effect.

The target in this test is Lysosomal acid glucosylceramidase (Homo sapiens) (UniProt P04062). Kind of test: Glucocerebrosidase.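 Further: the screen sought inhibitors.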 To be noted: purified enzyme, resorufin glucoside fluorescence (screen aimed at inhibitors), 20 min. An outline of the steps: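 Wild-type enzyme at 0.2 nM final in 50mM citric acid/KH2PO4, 10mM sodium taurocholate, 0.01% tween-20, pH 5.9, with resorufin beta-D-glucopyranoside at 30 uM final. Compounds titrated, 20 min at RT, red fluorescence read; AC50 from titration.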
UniProt P04062, sequence (P04062 whole entry, looked up): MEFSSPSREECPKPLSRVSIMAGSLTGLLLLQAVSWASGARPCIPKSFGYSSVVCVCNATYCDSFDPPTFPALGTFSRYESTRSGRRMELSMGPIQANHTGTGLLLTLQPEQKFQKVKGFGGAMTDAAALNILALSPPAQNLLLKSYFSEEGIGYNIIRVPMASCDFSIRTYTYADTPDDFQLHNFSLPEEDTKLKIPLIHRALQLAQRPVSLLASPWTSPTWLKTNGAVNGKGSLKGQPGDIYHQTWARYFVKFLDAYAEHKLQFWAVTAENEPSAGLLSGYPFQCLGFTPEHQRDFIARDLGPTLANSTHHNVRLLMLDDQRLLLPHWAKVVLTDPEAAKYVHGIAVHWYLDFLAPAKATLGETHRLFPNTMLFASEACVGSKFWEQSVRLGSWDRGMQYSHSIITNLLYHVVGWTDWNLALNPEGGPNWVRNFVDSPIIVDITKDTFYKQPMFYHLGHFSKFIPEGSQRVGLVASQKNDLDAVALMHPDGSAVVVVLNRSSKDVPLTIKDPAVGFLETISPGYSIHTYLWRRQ
For the compound `Cn1c(=O)cc(SCC(=O)N2CCCC2)c2ccccc21`, the Potency was inactive: > 76.9 µM.
Take `O=C(O)c1ccc(CN2CCCCC2)o1`: the Potency was inactive: > 76.9 µM.
Take `c1ccc(CSc2nnc(Cc3ccccn3)o2)cc1`: the Potency was inactive: > 76.9 µM.
As to `CC(=O)N1CCCc2cc(S(=O)(=O)N(C)Cc3ccccc3)ccc21`, the Potency was inactive: > 76.9 µM.
Then `Cc1ccc2c(CC(=O)Nc3sccc3C(N)=O)coc2c1`, with inactive: > 76.9 µM.
Regarding `COC(=O)c1[nH]c2ccc(C)cc2c1NS(=O)(=O)c1ccc(F)cc1`, the Potency is inactive: > 76.9 µM.
As to `CC(=O)N1c2c(cc(Br)cc2S(=O)(=O)N2CCOCC2)CC1C` (stereo not drawn), the Potency was inactive: > 76.9 µM.
Turning to `O=C1CC(N2CCC(c3nc4ccccc4[nH]3)CC2)C(=O)N1Cc1ccccc1` (stereo not drawn), the Potency was inactive: > 76.9 µM.
Then `Cc1cccc(-n2c(N)cc(=O)nc2SCC(=O)NC2CCCCC2)c1`, with inactive: > 76.9 µM; and `O=C(O)C1C2C=CC(O2)C1C(=O)Nc1ccc(S(=O)(=O)Nc2ccccc2)cc1` (stereo not drawn), with inactive: > 76.9 µM.
Then `Cc1cccc(Cn2c(=O)c3c(nc4n3CCCN4Cc3ccccc3)n(C)c2=O)c1`, with inactive: > 76.9 µM.
On to `COCCNC(=O)C1CC(c2cccc(OC)c2)=NO1` (stereo not drawn), for which the Potency is inactive: > 76.9 µM.
Then `O=C(CC(c1ccc(F)cc1)c1ccco1)N1CCOCC1` (stereo not drawn), with inactive: > 76.9 µM; and `O=P(COCCO)(c1ccccc1)c1ccccc1`, with inactive: > 76.9 µM.
With `Cc1nnc(SCc2cnc(-c3ccc(C(C)C)cc3)s2)n1C`, the Potency was inactive: > 76.9 µM.
With `O=C(NCc1ccccc1)c1cc(-c2cccs2)on1`, the Potency is inactive: > 76.9 µM.
`CC1CCC(NC(=O)Cn2c(=O)[nH]c3ccsc3c2=O)CC1` (stereo not drawn): the Potency is inactive: > 76.9 µM.
For `Cc1c(C(=O)OCCN2CCCCC2)oc2ccccc12`, the Potency was inactive: > 76.9 µM.
On to `COc1ccc(OCc2ccc(-c3nc4ccccc4c(=O)n3N)o2)cc1`, for which the Potency is inactive: > 76.9 µM.
`Cc1cc(C(=O)N2CCN(c3ncccn3)CC2)c(C)o1`: the Potency was inactive: > 76.9 µM.
For the compound `Cc1ccc(S(=O)(=O)C(C#N)c2nc3ccccc3nc2N2CCC(C)CC2)cc1` (stereo not drawn), the Potency was inactive: > 76.9 µM.
As for `O=S(=O)(c1ccc(Br)s1)N1CCCCC1`, the Potency was inactive: > 76.9 µM.
The same measure for `O=C(O)c1cc(-c2ccccn2)n[nH]1`: inactive: > 76.9 µM; for `O=C1CC(C(=O)Nc2ccc(O)c(C(=O)O)c2)C(c2ccccc2)O1` (stereo not drawn): inactive: > 76.9 µM; for `Cc1cc(C)n(-c2ccc(C(=O)OCC(=O)NCc3ccco3)cc2)n1`: inactive: > 76.9 µM.
Turning to `C=CCn1c(SCc2cc(=O)n3ccsc3n2)nc2sc(C)c(C)c2c1=O`, the Potency was inactive: > 76.9 µM.
For `Cc1ccc2nsnc2c1S(=O)(=O)NCc1ccncc1`, the Potency is inactive: > 76.9 µM.
Take `COc1ccc(-c2ccc(Nc3ccc(S(=O)(=O)N4CCCC4)cc3)nn2)cc1OC`: the Potency is inactive: > 76.9 µM.
As to `CC(=O)OC1CC2(C)C(=O)CCC2C2CCc3cc(O)ccc3C12` (stereo not drawn), the Potency is inactive: > 76.9 µM.
As to `COc1cc(C(=O)NCCC(=O)NCc2ccc3c(c2)OCO3)cc(OC)c1OC`, the Potency is inactive: > 76.9 µM.
The same measure for `Cc1cccc(C(=O)OCc2cc3ccccc3[nH]c2=O)c1`: inactive: > 76.9 µM; for `Cc1nnc(SCCn2c(N3CCCCC3)nc3c2c(=O)n(C)c(=O)n3C)s1`: inactive: > 76.9 µM; for `COc1ccc2[nH]c(C(=O)O)c(NS(=O)(=O)c3ccc(Cl)s3)c2c1`: inactive: > 76.9 µM.
Then `Cc1cccc(OCc2nnc3n2CCCCC3)c1`, with inactive: > 76.9 µM.
Then `O=c1c2c3c(sc2n2cnnc2n1-c1ccccc1)N(Cc1ccccc1)CCC3`, with inactive: > 76.9 µM; and `O=C(O)c1ccc(NS(=O)(=O)c2cc(Cl)ccc2Cl)cc1O`, with inactive: > 76.9 µM.
For the compound `CCOC(=O)c1ccc(NS(=O)(=O)c2cnc[nH]2)cc1`, the Potency was inactive: > 76.9 µM.
In the case of `CCCc1cc(C(N)=O)c(NC(=O)C2CCCO2)s1` (stereo not drawn), the Potency was inactive: > 76.9 µM.
In the case of `Clc1cccc2sc(N3CCCC3)nc12`, the Potency was inactive: > 76.9 µM.
With `c1ccc(SCc2nc(-c3ccccn3)no2)cc1`, the Potency was inactive: > 76.9 µM.
Turning to `CC1CCN(C(=O)C(NS(=O)(=O)c2cccc3nsnc23)c2ccccc2)CC1` (stereo not drawn), the Potency was inactive: > 76.9 µM.
On to `O=c1ccc2cc(S(=O)(=O)N3CCOCC3)ccc2o1`, for which the Potency is inactive: > 76.9 µM.
As for `Cc1cccc(-c2c3c(=O)n(C)c(=O)n(C)c3cn2CCO)c1`, the Potency is inactive: > 76.9 µM.
Take `O=C(CS(=O)(=O)c1ccccc1)N1CCCCCC1`: the Potency is inactive: > 76.9 µM.
Then `Cn1c(=O)c2c(nc(Br)n2CCc2ccccc2)n(C)c1=O`, with inactive: > 76.9 µM.
The same measure for `CN1CCN(CC#CCn2c3ccccc3c3ccccc32)CC1`: “inactive”.
Then `CCOC(=O)C1CCN(C(=O)c2ccc(Br)o2)CC1`, with inactive: > 76.9 µM.
For `Cc1cccc2cc(CN(CC3CCCO3)C(=O)c3cnccn3)c(=O)[nH]c12` (stereo not drawn), the Potency was inactive: > 76.9 µM.
Regarding `C=CCn1c(SCC(=O)NC(=O)NCc2ccco2)nc2sc(C)c(C)c2c1=O`, the Potency is inactive: > 76.9 µM.
As for `CC(C)NC(=O)CSc1nc2ccccc2n1CC(=O)N1CCc2ccccc21`, the Potency was inactive: > 76.9 µM.
Regarding `Cc1ccccc1CS(=O)(=O)Cc1ccc(C(=O)NCCCN2CCOCC2)o1`, the Potency is inactive: > 76.9 µM.
The same measure for `Cc1occc1-c1nnc(SCC(=O)Nc2ccccc2)n1CCc1ccccc1`: “inactive”; for `COc1ccc2ncn(-c3ccccc3)c2c1`: inactive: > 76.9 µM; for `CCOC(=O)c1[nH]c(C)c(C(=O)NCC2CCCO2)c1C` (stereo not drawn): inactive: > 76.9 µM.
On to `CCn1cc(C(=O)OCC(=O)NCc2ccc3c(c2)OCO3)c(=O)c2ccc(C)nc21`, for which the Potency is inactive: > 76.9 µM.
Consider `Cc1ccc(-c2nnn(CC(=O)N(c3cccc(F)c3)C(C(=O)NC3CCCC3)c3ccco3)n2)o1` (stereo not drawn), for which the Potency was inactive: > 76.9 µM.
As for `CC(C)(CNCC(O)c1ccccc1)N1CCOCC1` (stereo not drawn), the Potency was inactive: > 76.9 µM.
Take `c1ccc(-c2nnc(-c3cccc(-c4nnc(-c5ccccc5)o4)c3)o2)cc1`: the Potency is inactive: > 76.9 µM.
On to `CCC(C)(C)n1nnnc1C(c1ccccc1F)N1CCC(C(N)=O)CC1` (stereo not drawn), for which the Potency was inactive: > 76.9 µM.
Turning to `CC1CN(C(=O)c2ccc3c(c2)OCO3)OC(c2ccccc2)O1` (stereo not drawn), the Potency is inactive: > 76.9 µM.
For `COC(=O)c1ccc(CSc2nncn2C)cc1`, the Potency was inactive: > 76.9 µM.
Consider `Nc1nonc1-c1noc(-c2ccccc2Br)n1`, for which the Potency is inactive: > 76.9 µM.
With `COC(=O)c1ccc(Cn2cnc3c(cnn3-c3ccc(Cl)cc3)c2=O)o1`, the Potency is inactive: > 76.9 µM.
The same measure for `O=C(CSc1nc2ccsc2c(=O)n1NC(=O)c1ccccc1)Nc1nccs1`: inactive: > 76.9 µM.
As for `Cc1cccc(C)c1NC(=O)CC(NCc1ccco1)C(=O)O` (stereo not drawn), the Potency was inactive: > 76.9 µM.
Take `CC(c1ccccc1)n1c(-c2ccncc2)n[nH]c1=S` (stereo not drawn): the Potency is inactive: > 76.9 µM.
With `Cn1c(=O)[nH]c2cc3ccccc3cc21`, the Potency is inactive: > 76.9 µM.
Take `CCOC(=O)c1coc(CNC(=O)c2c(C)oc3c2CCCC3)c1`: the Potency was inactive: > 76.9 µM.
Consider `COc1cccc(NC(=O)c2ocnc2C)c1`, for which the Potency is inactive: > 76.9 µM.
The same measure for `CC(C)CNS(=O)(=O)c1ccc(CCC(=O)N2CCN(Cc3ccc4c(c3)OCO4)CC2)cc1`: inactive: > 76.9 µM.
Take `O=C(c1ccc(N2CCOCC2)cc1)c1cccs1`: the Potency is inactive: > 76.9 µM.
The same measure for `O=C(Nc1ccc(-c2noc(COc3ccccc3Cl)n2)cc1)c1ccco1`: inactive: > 76.9 µM; for `COc1ccc(-n2cnnc2SCc2ncc(-c3ccccc3)o2)cc1`: inactive: > 76.9 µM.
As to `COC(=O)c1ccc(CSc2nc(-c3ccco3)cc(C(F)(F)F)n2)o1`, the Potency is inactive: > 76.9 µM.
Then `Nc1nc(-c2c[nH]c3ccccc23)cs1`, with “inactive”.
Turning to `Cc1cc(C)c2c(c1)NC(=O)C2(O)CC(=O)c1cccs1` (stereo not drawn), the Potency was inactive: > 76.9 µM.
Then `CCOc1ccccc1N(CC(=O)O)S(=O)(=O)c1ccccc1`, with inactive: > 76.9 µM; and `CN(C)C(=O)COc1ccc2cc(-c3ccccc3)c(=O)oc2c1`, with inactive: > 76.9 µM; and `CN(C(=O)c1ccno1)c1nnc(-c2ccccn2)s1`, with inactive: > 76.9 µM.
For `O=C(OCc1cccc2ccccc12)c1ccc2c(=O)[nH]c(CN3CCOCC3)nc2c1`, the Potency was inactive: > 76.9 µM.
In the case of `O=C(Nc1ccc(S(=O)(=O)N2CCOCC2)cc1)c1ccc(Br)o1`, the Potency was inactive: > 76.9 µM.
With `CCOc1ccccc1NC(=O)CSc1nnc(-c2cnccn2)n1CC`, the Potency is inactive: > 76.9 µM.
As to `O=c1c(-c2ccccc2)c(O)nc2ccccn12`, the Potency is inactive: > 76.9 µM.
In the case of `Oc1ccc(CNc2ccc(F)cc2)c2cccnc12`, the Potency was inactive: > 76.9 µM.
`c1ccc(Cn2nnc3c(N4CCc5ccccc54)ncnc32)cc1`: the Potency is inactive: > 76.9 µM.
The same measure for `CCOC(=O)N1CCN(C(=O)COc2ccc3c(c2)C(=O)CC2(CCN(C(C)=O)CC2)O3)CC1`: inactive: > 76.9 µM; for `O=C(O)CSc1nnc(Cn2c(=O)sc3ccccc32)n1-c1cccc(Cl)c1`: inactive: > 76.9 µM; for `Cc1ccc(C(=O)NC2CCN(C(=O)N3CCOCC3)CC2)cc1`: inactive: > 76.9 µM.
As to `CC1CCCC(NC(=O)c2cn(C)c3ccc(S(=O)(=O)N4CCCC4)cc3c2=O)C1C` (stereo not drawn), the Potency is inactive: > 76.9 µM.
The same measure for `O=C(NCCOC(=O)C1COc2ccccc2O1)c1cccnc1` (stereo not drawn): inactive: > 76.9 µM; for `Cn1c(SCC(=O)N2c3ccccc3Sc3ccc(Cl)cc32)nnc1-c1ccco1`: inactive: > 76.9 µM.
As for `C=C(C)Cn1c(CCNC(=O)CC)nc2ccccc21`, the Potency is inactive: > 76.9 µM.
Regarding `Cc1ccc(-c2c3c(=O)n(C)c(=O)n(C)c3cn2CCCN2CCOCC2)cc1`, the Potency is inactive: > 76.9 µM.
